Experimental findings from PubChem BioAssay (NCI) are described below.

The term GI50 denotes the concentration giving 50% growth inhibition. Broadly, the TGI is the concentration at which net growth stops. Low readings indicate more potent growth arrest, high ones less potent growth arrest.

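All cell lines were grown in 96-well plates and treated with compound for 48 hours. At the GI50, growth is halved. Definition used: TGI = concentration required for complete inhibition of growth.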

This assay has as its system NCI-H322M lung. Kind of assay: DTP human tumour cell line panel, 48 h.

With `COC[C@@H](CC(C)C)N=C1NC(=O)/C(=C/c2ccc3ncoc3c2)N1`, the GI50 was 2700 nM and the TGI was over 100000 nM.
